Cytotoxicity call and growth inhibition call data for 27 compounds are collected here from the antibiotic and cytotoxicity screens of Wong et al. (2023).

Each structure is given as a SMILES string. This is one part of the list.

Assay [1] has as its system HSkMC (human skeletal muscle cells). As to the kind of experiment: cytotoxicity call (relative viability < 0.9). Conditions: 10 µM.
The test system of assay [2] is HepG2. As to the kind of experiment: cytotoxicity call (relative viability < 0.9). Conditions: 10 µM.
Assay [3] has as its system S. aureus RN4220. As to the kind of experiment: growth inhibition call (relative growth <= 0.2). The following applies: 50 µM.

As to `O=C(Cc1ccncc1)Nc1ccc2c(c1)[C@H]1C[C@H](CC(=O)N3CCc4ccccc4C3)O[C@H](CO)[C@H]1O2`, the cytotoxicity call in assay [1] and in assay [2] was “inactive” in each case. Also, the growth inhibition call in assay [3] was “inactive”.

As to `CC(C)NC(=O)N(C)C[C@H]1OCCCC[C@H](C)Oc2ccc(NC(=O)Nc3ccc(F)cc3)cc2C(=O)N([C@@H](C)CO)C[C@H]1C`, the cytotoxicity call in assay [1] and in assay [2] was “inactive” throughout. The growth inhibition call in assay [3] was “inactive”.

In the case of `CCS(=O)(=O)N1CC[C@]2(CC1)CN([C@@H](CO)c1c2c2ccc(cc2n1C)OC)C(=O)CN1CCOCC1`, the cytotoxicity call in assay [1] and in assay [2] was “inactive” throughout. For the same compound, the growth inhibition call in assay [3] was “inactive”.

`Cc1ccccc1S(=O)(=O)N1C[C@@H](O)COC[C@H]2O[C@@H](CC(=O)N3CCOCC3)CC[C@@H]21`: the cytotoxicity call in assay [1] and in assay [2] was “inactive” in each case. Moreover, the growth inhibition call in assay [3] was “inactive”.

As for `C[C@H](CO)N1C[C@H](C)[C@H](CN(C)C(=O)CCC(F)(F)F)OCCCC[C@H](C)Oc2ccc(NS(=O)(=O)c3ccc(F)cc3)cc2C1=O`, the cytotoxicity call in assay [1] and in assay [2] was “inactive” in each case. The growth inhibition call in assay [3] is “inactive”.

Regarding `C=CCOC(=O)N(C)C[C@H]1OCCCC[C@H](C)Oc2ccc(NC(=O)Nc3ccccc3)cc2C(=O)N([C@@H](C)CO[Si](C)(C)C(C)(C)C)C[C@H]1C`, in assay [1], the cytotoxicity call was “inactive”. The cytotoxicity call in assay [2] is “active”. Also, in assay [3], the growth inhibition call was “inactive”.

As for `C[C@@H]1CCCCO[C@@H](CN(C)C(=O)Nc2ccccc2)[C@@H](C)CN([C@H](C)CO)C(=O)c2cc(NC(=O)Nc3ccccc3)ccc2O1`, the cytotoxicity call in assay [1] and in assay [2] was “inactive” in each case. The growth inhibition call in assay [3] was “inactive”.

For the compound `Cc1ccc(Nc2nnc(-c3ccccc3)c3ccccc23)cc1`, the cytotoxicity call in assay [1] was “inactive”. Further, in assay [2], the cytotoxicity call is “active”. Further, the growth inhibition call in assay [3] is “inactive”.

For `C[C@@H]1CN([C@H](C)CO)S(=O)(=O)c2ccc(-c3cccc(C#N)c3)cc2O[C@@H]1CN(C)C(=O)c1ccncc1`, the cytotoxicity call in assay [1] and in assay [2] was “inactive” each time. In assay [3], the growth inhibition call was “inactive”.

For the compound `Clc1ccc(Cn2cccc2)cn1`, the cytotoxicity call in assay [1] and in assay [2] was “inactive” in each case. Further, in assay [3], the growth inhibition call is “inactive”.

`C[C@@H]1CN([C@@H](C)CO)C(=O)c2cc(NC(=O)Nc3cccc4ccccc34)ccc2O[C@@H]1CN(C)C(=O)NC1CCCCC1`: the cytotoxicity call in assay [1] and in assay [2] was “inactive” each time. Also, the growth inhibition call in assay [3] was “inactive”.

As for `C[C@H]1CN([C@@H](C)CO)C(=O)c2cccc(NC(=O)Nc3cccc4ccccc34)c2O[C@@H]1CN(C)S(=O)(=O)c1ccc(F)cc1`, the cytotoxicity call in assay [1] is “inactive”. Besides, the cytotoxicity call in assay [2] was “active”. Further, the growth inhibition call in assay [3] is “inactive”.

Consider `CC(C)n1cnnc1[C@@H](C)N`, for which the cytotoxicity call in assay [1] and in assay [2] was “inactive” each time. In addition, the growth inhibition call in assay [3] is “inactive”.

Consider `C[C@@H]1CCCCO[C@H](CN(C)Cc2ccccc2)[C@H](C)CN([C@@H](C)CO)C(=O)c2cc(NS(=O)(=O)c3ccccc3)ccc2O1`, for which the cytotoxicity call in assay [1] and in assay [2] was “inactive” throughout. Besides, the growth inhibition call in assay [3] was “inactive”.

Take `C[C@@H]1CN([C@H](C)CO)C(=O)c2cccc(NC(=O)Nc3ccc(C(F)(F)F)cc3)c2O[C@@H]1CN(C)Cc1ccc2c(c1)OCO2`: the cytotoxicity call in assay [1] and in assay [2] was “inactive” in each case. Further, in assay [3], the growth inhibition call was “inactive”.

Regarding `CC(C)NC(=O)N(C)C[C@H]1Oc2c(NC(=O)Nc3ccc4c(c3)OCO4)cccc2C(=O)N([C@@H](C)CO)C[C@@H]1C`, the cytotoxicity call in assay [1] and in assay [2] was “inactive” throughout. Besides, the growth inhibition call in assay [3] is “inactive”.

Turning to `C[C@@H]1CN([C@@H](C)CO)C(=O)c2cc(NC(=O)Cn3cnnn3)ccc2O[C@H]1CN(C)S(C)(=O)=O`, the cytotoxicity call in assay [1] and in assay [2] was “inactive” each time. For the same compound, the growth inhibition call in assay [3] was “inactive”.

For `Cc1noc(C)c1NC(=O)Nc1ccc2c(c1)C(=O)N([C@H](C)CO)C[C@@H](C)[C@H](CN(C)C(=O)Nc1ccc(F)cc1)OCCCC[C@@H](C)O2`, the cytotoxicity call in assay [1] and in assay [2] was “inactive” in each case. Moreover, the growth inhibition call in assay [3] is “inactive”.

For `C[C@H](CO)N1C[C@H](C)[C@H](CN(C)CC2CCCCC2)Oc2ccc(NC(=O)Cc3cn(C)c4ccccc34)cc2CC1=O`, the cytotoxicity call in assay [1] and in assay [2] was “inactive” throughout. For the same compound, in assay [3], the growth inhibition call is “inactive”.

In the case of `CN(C)c1cc(CNCC(C)(C)C)c(O)c2c1C[C@H]1C[C@H]3[C@H](N(C)C)C(=O)[C@H](C(N)=O)C(=O)[C@@]3(O)C(=O)[C@@H]1C2=O`, the cytotoxicity call in assay [1] and in assay [2] was “inactive” throughout. The growth inhibition call in assay [3] was “active”.

As for `COc1ccc(CN(C)C[C@H]2OCCCC[C@H](C)Oc3ccc(NC(=O)C4CCCCC4)cc3C(=O)N([C@@H](C)CO)C[C@H]2C)cc1`, the cytotoxicity call in assay [1] and in assay [2] was “inactive” each time. Further, in assay [3], the growth inhibition call is “inactive”.

On to `Cc1noc(C)c1NC(=O)N(C)C[C@@H]1OCCCC[C@@H](C)Oc2ccc(NC(=O)Nc3ccc(C(F)(F)F)cc3)cc2C(=O)N([C@H](C)CO)C[C@H]1C`, for which the cytotoxicity call in assay [1] and in assay [2] was “inactive” throughout. The growth inhibition call in assay [3] is “inactive”.

As to `C[C@@H]1CN([C@@H](C)CO)C(=O)c2cc(NS(=O)(=O)c3ccc(F)cc3)ccc2O[C@@H](C)CCCCO[C@H]1CN(C)C(=O)Cc1ccccc1`, the cytotoxicity call in assay [1] and in assay [2] was “inactive” throughout. Moreover, in assay [3], the growth inhibition call is “inactive”.

With `C[C@@H]1CN([C@H](C)CO)C(=O)c2cc(-c3ccc(F)cc3)cnc2O[C@@H]1CN(C)C(=O)Cc1ccccn1`, the cytotoxicity call in assay [1] and in assay [2] was “inactive” each time. Besides, the growth inhibition call in assay [3] was “inactive”.

As for `COc1ccc(NC(=O)Nc2ccc3c(c2)C(=O)N([C@H](C)CO)C[C@@H](C)[C@@H](CN(C)Cc2ccccc2)OCCCC[C@@H](C)O3)cc1`, the cytotoxicity call in assay [1] and in assay [2] was “inactive” throughout. The growth inhibition call in assay [3] was “inactive”.

With `Cc1ccc(S(=O)(=O)Nc2ccc3c(c2)C(=O)N([C@H](C)CO)C[C@@H](C)[C@H](CN(C)Cc2ccc(Cl)c(Cl)c2)OCCCC[C@@H](C)O3)cc1`, in assay [1], the cytotoxicity call is “inactive”. In addition, the cytotoxicity call in assay [2] was “active”. Besides, the growth inhibition call in assay [3] was “inactive”.

As for `C[C@@H]1CCCCO[C@@H](CN(C)Cc2ccccc2)[C@H](C)CN([C@@H](C)CO)C(=O)c2cc(NC(=O)c3ccccc3)ccc2O1`, the cytotoxicity call in assay [1] and in assay [2] was “inactive” throughout. Further, the growth inhibition call in assay [3] is “inactive”.
